This is one part of the list.
How the values were obtained:
Assay in all cases: glycan array binding signal (z-score within array); higher = stronger binding
Details in all cases: glycan notation: IUPAC condensed, linker removed; mutation: R74S
[1] = molecular target: Gal(b1-4)GlcNAc(b1-6)Gal(b1-4)GlcNAc
Method in brief: (§1)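 Negative Z-scores can be read as non-binding. The Z-score is calculated within each array and then averaged across arrays of one protein sequence at different concentrations or buffers and across linkers. Arrays, 3228 in all, were curated from the Consortium for Functional Glycomics database and kept only where the protein sequence was available.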

[2] = molecular target: Gal(b1-4)GlcNAc(b1-6)GalNAc
Method in brief: as §1

[3] = molecular target: Gal(b1-4)GlcNAc(b1-6)[Gal(b1-3)]GalNAc
Method in brief: as §1

[4] = molecular target: Gal(b1-4)GlcNAc(b1-6)[Gal(b1-4)GlcNAc(b1-3)]GalNAc
Method in brief: as §1

Gal(b1-4)GlcNAc6P = molecular target: Gal(b1-4)GlcNAc6P
Method in brief: as §1

Gal(b1-6)Gal = molecular target: Gal(b1-6)Gal
Method in brief: as §1

Gal3S(b1-3)GalNAc = molecular target: Gal3S(b1-3)GalNAc
Method in brief: as §1

Gal3S(b1-3)GlcNAc = molecular target: Gal3S(b1-3)GlcNAc
Method in brief: as §1

[5] = molecular target: Gal3S(b1-3)[Fuc(a1-4)]GlcNAc
Method in brief: as §1

Gal3S(b1-4)Glc = molecular target: Gal3S(b1-4)Glc
Method in brief: as §1

Gal3S(b1-4)Glc6S = molecular target: Gal3S(b1-4)Glc6S
Method in brief: as §1

Gal3S(b1-4)GlcNAc = molecular target: Gal3S(b1-4)GlcNAc
Method in brief: as §1

[6] = molecular target: Gal3S(b1-4)[Fuc(a1-3)]Glc6S
Method in brief: as §1

[7] = molecular target: Gal3S(b1-4)[Fuc(a1-3)]GlcNAc
Method in brief: as §1

[8] = molecular target: Gal3S(b1-4)[Fuc(a1-3)]GlcNAc6S
Method in brief: as §1

Gal3S4S(b1-4)GlcNAc = molecular target: Gal3S4S(b1-4)GlcNAc
Method in brief: as §1

Gal3S6S(b1-4)GlcNAc = molecular target: Gal3S6S(b1-4)GlcNAc
Method in brief: as §1

Gal3S6S(b1-4)GlcNAc6S = molecular target: Gal3S6S(b1-4)GlcNAc6S
Method in brief: as §1

Gal4S(b1-4)GlcNAc = molecular target: Gal4S(b1-4)GlcNAc
Method in brief: as §1

Gal4S6S(b1-4)GlcNAc = molecular target: Gal4S6S(b1-4)GlcNAc
Method in brief: as §1

Gal6P(b1-4)GlcNAc = molecular target: Gal6P(b1-4)GlcNAc
Method in brief: as §1

Gal6S(b1-3)GlcNAc = molecular target: Gal6S(b1-3)GlcNAc
Method in brief: as §1

Gal6S(b1-3)GlcNAc6S = molecular target: Gal6S(b1-3)GlcNAc6S
Method in brief: as §1

B1: Gal 7 (Homo sapiens) (protein)
chain: MSNVPHKSSLPEGIRPGTVLRIRGLVPPNASRFHVNLLCGEEGGSDAALHFNPRLDTSEVVFNSKEGGSWGREESGPGVPFGRGQPFEVLIIASDDGFKAVVGDAQYHHFRHRLPLARVRLVEVGGDVQLDSVRIF
- glycan array binding signal (z-score) [1]: -0.72
- glycan array binding signal (z-score) [2]: -0.373
- glycan array binding signal (z-score) [3]: 0.055
- glycan array binding signal (z-score) [4]: -0.588
- glycan array binding signal (z-score) (Gal(b1-4)GlcNAc6P): -0.471
- glycan array binding signal (z-score) (Gal(b1-6)Gal): -0.328
- glycan array binding signal (z-score) (Gal3S(b1-3)GalNAc): -0.084
- glycan array binding signal (z-score) (Gal3S(b1-3)GlcNAc): 0.311
- glycan array binding signal (z-score) [5]: 0.757
- glycan array binding signal (z-score) (Gal3S(b1-4)Glc): -0.03
- glycan array binding signal (z-score) (Gal3S(b1-4)Glc6S): 0.166
- glycan array binding signal (z-score) (Gal3S(b1-4)GlcNAc): 0.004
- glycan array binding signal (z-score) [6]: 0.633
- glycan array binding signal (z-score) [7]: -0.001
- glycan array binding signal (z-score) [8]: 0.381
- glycan array binding signal (z-score) (Gal3S4S(b1-4)GlcNAc): -0.408
- glycan array binding signal (z-score) (Gal3S6S(b1-4)GlcNAc): -0.38
- glycan array binding signal (z-score) (Gal3S6S(b1-4)GlcNAc6S): -0.496
- glycan array binding signal (z-score) (Gal4S(b1-4)GlcNAc): -0.406
- glycan array binding signal (z-score) (Gal4S6S(b1-4)GlcNAc): -0.228
- glycan array binding signal (z-score) (Gal6P(b1-4)GlcNAc): -0.363
- glycan array binding signal (z-score) (Gal6S(b1-3)GlcNAc): 0.001
- glycan array binding signal (z-score) (Gal6S(b1-3)GlcNAc6S): 0.436

From the supplement of paper PMC8728848
